# Several values for one entry are separate records, joined by “and”; a condition that tells them apart may be missing. Identical values can stand only once. About 5,800 (2.1%) of roughly 270,000 compounds were called active. Inconclusive means that the source gave no clear call. Such entries were picked first, then a sample of the others. Calls come from the whole dose curve; as a rule, active = well fitted inhibition curve with a large enough effect; inconclusive = small, poorly fitted or top-dose-only effect; inactive = flat fitted curve, though single readings scatter. Potencies beside an inconclusive call are fits to weak or partial responses and may not hold up.
# Molecular target: Microtubule-associated protein tau (Homo sapiens) (UniProt P10636)
# Experiment: qHTS for Inhibitors of Tau Fibril Formation, Thioflavin T Binding; note: nearly all actives have a fitted effect of over 55% in size
# Details: recombinant tau K18 P301L, heparin-induced fibrillization, ThT fluorescence; series mostly up to 57.4 µM; activity, negative = inhibition: at the top concentration
# Summary of the method: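 ThT emission at 510 nm, taken 1 hr after adding 30 uM dye, quantifies aggregates formed when 20 uM heparin acts on human tau K18 P301L for 6 hr at 37 C.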
# % is set by controls: 0 for no effect and ±100 for the full control effect; potency is the fitted concentration of half-maximal effect; tags give direction and shape of the fitted curve.
# Chain of UniProt P10636 (P10636 whole entry, looked up): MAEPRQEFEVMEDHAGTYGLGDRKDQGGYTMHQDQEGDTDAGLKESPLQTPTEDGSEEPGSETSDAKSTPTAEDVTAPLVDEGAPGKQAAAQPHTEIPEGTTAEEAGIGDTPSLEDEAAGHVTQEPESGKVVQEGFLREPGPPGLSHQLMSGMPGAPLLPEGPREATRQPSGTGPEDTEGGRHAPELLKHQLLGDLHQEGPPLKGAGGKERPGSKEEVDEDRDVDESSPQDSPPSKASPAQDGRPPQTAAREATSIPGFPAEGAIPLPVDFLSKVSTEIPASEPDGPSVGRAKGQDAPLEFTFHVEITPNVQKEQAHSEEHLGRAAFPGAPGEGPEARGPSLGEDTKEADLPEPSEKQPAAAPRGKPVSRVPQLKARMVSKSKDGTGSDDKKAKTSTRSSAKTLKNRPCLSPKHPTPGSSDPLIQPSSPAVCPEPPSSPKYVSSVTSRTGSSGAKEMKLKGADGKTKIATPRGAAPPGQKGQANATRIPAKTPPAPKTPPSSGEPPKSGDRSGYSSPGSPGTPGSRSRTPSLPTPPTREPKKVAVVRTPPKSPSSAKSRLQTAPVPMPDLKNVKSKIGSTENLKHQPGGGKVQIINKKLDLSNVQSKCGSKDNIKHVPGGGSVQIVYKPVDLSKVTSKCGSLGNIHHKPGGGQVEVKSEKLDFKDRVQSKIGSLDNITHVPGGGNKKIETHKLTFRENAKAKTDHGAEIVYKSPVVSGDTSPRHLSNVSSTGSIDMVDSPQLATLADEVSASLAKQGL
Structure (SMILES),"activity, negative = inhibition",Potency
Cc1ccc(-c2nnc(-n3nc(C)cc3C)c3ccccc23)cc1,inactive: -7.68%,–
COc1cccc(OCc2nnc(SCC(=O)N3c4ccccc4Sc4ccc(Cl)cc43)o2)c1,–,"inconclusive: 31.6 µM [inhibitor, single point]"
COc1ccc([N+](=O)[O-])cc1/C=N/NC(=O)/C(=C\c1cccs1)NC(=O)c1ccccc1,inactive: -3.74%,–
NNC(=S)Nc1ccc(S(=O)(=O)N2CCOCC2)cc1,–,"inconclusive: 15.8 µM [inhibitor, partial curve]"
Cc1ccccc1-c1nc(-c2cccnc2)no1,inactive: -7.17%,–
Cc1c(O)c2c(=O)n(-c3ccccc3)c(-c3ccccc3)cc2oc1=O,inactive: 3.2%,–
O=C1C=C(NCc2ccc3c(c2)OCO3)CC(c2ccccc2)C1 (stereo not drawn),inactive: -5.29%,–
OCCN(CCO)c1ccc2ccccc2c1,inactive: -16.3%,–
CCc1ccc(NC(=O)CCS(=O)(=O)c2cccc3nsnc23)cc1,–,"inconclusive: 31.6 µM [inhibitor, single point]"
CCCc1[nH][nH]c(=O)c1C(c1ccc(Br)cc1)C(C#N)C#N (stereo not drawn),–,"inconclusive: 31.6 µM [inhibitor, partial curve]"
Cn1c(-c2ccc(F)cc2)cnc1NCc1cc2c(cc1[N+](=O)[O-])OCO2,inactive: -0.159%,–
Cc1nc2ccccc2c(-c2ccccc2)c1C(=O)c1ccccc1,–,"inconclusive: 28.2 µM [inhibitor, single point]"
CCOC(=O)N1CCc2c(sc(NCc3cc(OC)c(OC)cc3OC)c2C(=O)Nc2ccc(OCC)cc2)C1,–,"inconclusive: 28.2 µM [inhibitor, single point]"
COc1ccc(-c2oc3ccccc3c(=O)c2OCC(=O)O)cc1,inactive: -1.95%,–
Cc1ccccc1C1CC(=O)Oc2ccc(O)cc21 (stereo not drawn),–,"inconclusive: 31.6 µM [inhibitor, partial curve]"
O=C(CCC(=O)Nc1ccc(F)cc1)N/N=C/c1ccncc1,inactive: -5.09%,–
S=c1[nH]ccn1-c1cccc(Cl)c1,inactive: 1.24%,–
C#CCNC(=O)C1=C[C@H](c2ccc(Br)cc2)[C@@H](CCCO)[C@H](OCC)O1,inactive: 5.47%,–
COc1cccc(C2CC(=O)N3CN(c4cccc(Cl)c4C)CSC3=C2C#N)c1OC (stereo not drawn),–,active: 28.2 µM
COc1cccc(C(=O)Nc2ccc(Cl)c(C(F)(F)F)c2)c1,–,"inconclusive: 28.2 µM [inhibitor, partial curve, poor fit]"
COc1ccc(C(=O)COc2ccc(NC(C)=O)cc2)cc1,–,"inconclusive: 28.2 µM [inhibitor, partial curve]"
O=C(/C=C/N1CCOCC1)c1ccc(-c2ccccc2)cc1,–,"inconclusive: 25.1 µM [inhibitor, partial curve, poor fit]"
COc1ccc(C2SCCN2S(=O)(=O)c2ccccc2)cc1 (stereo not drawn),–,"inconclusive: 31.6 µM [inhibitor, partial curve]"
O=C1/C(=C/c2cccnc2)CCc2c1[nH]c1ccccc21,–,active: 7.08 µM

Structure (SMILES),"activity, negative = inhibition",Potency
C/C(=N\OC(=O)c1ccccc1)c1cc(-c2ccc(Cl)cc2)no1,–,"inconclusive: 0.891 µM [inhibitor, full curve]"
O=C(Cc1ccc([N+](=O)[O-])cc1)N1CCCc2ccccc21,–,"inconclusive: 22.4 µM [inhibitor, single point]"
CCc1nn(Cc2cc(C)ccc2C)c(=O)c2cc3cc(C)ccc3n12,inactive: 4.25%,–
Cc1cc(C)n(-c2ccc(C(=O)Nc3ccc(C)c(S(=O)(=O)N(C)C)c3)cc2)n1,inactive: -5.53%,–
CCCCS/C(N)=N/N=C/c1ccccc1O,–,"inconclusive: 22.4 µM [inhibitor, partial curve, poor fit]"
Oc1ccc(F)cc1-c1cc(-c2ccc3c(c2)OCCO3)n[nH]1,–,"inconclusive: 1.78 µM [inhibitor, partial curve]"
CCc1ccccc1NC(=O)C(=O)NCC(c1cccnc1)N1CCN(c2ccccc2F)CC1 (stereo not drawn),inactive: -2.58%,–
COc1cc2c(cc1OC)-c1c(OC)c(OC)cc3ccnc(c13)C2=O,–,active: 6.31 µM and active: 7.08 µM
CN(C)c1ccc(-c2nc3ccccn3c2/N=C/c2ccc(Br)cc2)cc1,–,active: 14.1 µM
COc1ccc(-n2nnc3c(SCC(=O)c4ccccc4)ncnc32)cc1,–,"inconclusive: 5.62 µM [inhibitor, partial curve]"
CCCSc1nc2sc3c(c2c(=O)n1Cc1ccccc1)CC(C)(CC)OC3 (stereo not drawn),inactive: -12.4%,–
O=C(CCC(=O)OCC(=O)c1ccc(Br)cc1)NC1CCCCC1,–,"inconclusive: 10 µM [inhibitor, partial curve, poor fit]"
Cc1cc2c(c(=O)o1)[C@@H](O)[C@H]1O[C@@H]1C2=O,–,"inconclusive: 5.01 µM [inhibitor, partial curve, poor fit]"
O=C1/C(=C/C=C/c2ccco2)SC(=S)N1c1ccc(O)cc1,–,active: 3.98 µM
COc1ccc(Cc2c(O)nc(SCC(=O)c3ccc(OC)cc3)[nH]c2=O)cc1,–,"inconclusive: 11.2 µM [inhibitor, partial curve]"
CCOC(=O)c1sc(/N=C/c2c(C)[nH]n(-c3ccccc3)c2=O)c(C#N)c1C,inactive: -13%,–
COc1ccc(-c2sc(NC(=O)c3ccc(C)cc3)nc2-c2ccc([N+](=O)[O-])cc2)cc1,–,"inconclusive: 6.31 µM [inhibitor, partial curve]"
CC1=CC(=O)C2=C(C)C[C@@H]3OC(=O)[C@@H](C)[C@H]3C=C12,inactive: -8.1%,–
CCOC(=O)C1CCc2sc(N)c(C#N)c21 (stereo not drawn),inactive: -14.2%,–
CCc1ccc(C(=O)N2CCC(c3nc4ccccc4s3)CC2)cc1,–,"inconclusive: 22.4 µM [inhibitor, partial curve]"
Cc1ccccc1C(=O)Nc1nc(-c2nnn(-c3ccc(C(C)C)cc3)c2C)ns1,–,"inconclusive: 15.8 µM [inhibitor, partial curve]"
COCCn1c(C)cc(C(=O)COC(=O)c2ccc3c(c2)NC(=O)CS3)c1C,–,"inconclusive: 20 µM [inhibitor, partial curve, poor fit]"
COc1ccc(NS(=O)(=O)c2ccc3[nH]c4c(c3c2)CCCC4)cc1Cl,inactive: -12.7%,–
CCc1ccc2oc(-c3cccc(N)c3)nc2c1,–,"inconclusive: 12.6 µM [inhibitor, partial curve]"

# — PubChem BioAssay AID1460 (National Center for Advancing Translational Sciences (NCATS), 2008)
